In publication PMC4336329 (PLoS ONE, 2015):
Hit rate of the full screen: of about 310,000 compounds, about 14,000 (4.5%) showed an effect of 50% or more. The effect is printed as a negative number. The list shows a part of the results.

These molecules were tested against human ether-à-go-go-related gene (hERG) potassium channel (human, UniProt Q12809) (assay: primary screen, population patch clamp on CHO cells stably expressing hERG).
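Note: peak tail current of the secondary pulse compared with the same well before compound.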

Sequence of human ether-à-go-go-related gene (hERG) potassium channel (Q12809 whole entry, looked up): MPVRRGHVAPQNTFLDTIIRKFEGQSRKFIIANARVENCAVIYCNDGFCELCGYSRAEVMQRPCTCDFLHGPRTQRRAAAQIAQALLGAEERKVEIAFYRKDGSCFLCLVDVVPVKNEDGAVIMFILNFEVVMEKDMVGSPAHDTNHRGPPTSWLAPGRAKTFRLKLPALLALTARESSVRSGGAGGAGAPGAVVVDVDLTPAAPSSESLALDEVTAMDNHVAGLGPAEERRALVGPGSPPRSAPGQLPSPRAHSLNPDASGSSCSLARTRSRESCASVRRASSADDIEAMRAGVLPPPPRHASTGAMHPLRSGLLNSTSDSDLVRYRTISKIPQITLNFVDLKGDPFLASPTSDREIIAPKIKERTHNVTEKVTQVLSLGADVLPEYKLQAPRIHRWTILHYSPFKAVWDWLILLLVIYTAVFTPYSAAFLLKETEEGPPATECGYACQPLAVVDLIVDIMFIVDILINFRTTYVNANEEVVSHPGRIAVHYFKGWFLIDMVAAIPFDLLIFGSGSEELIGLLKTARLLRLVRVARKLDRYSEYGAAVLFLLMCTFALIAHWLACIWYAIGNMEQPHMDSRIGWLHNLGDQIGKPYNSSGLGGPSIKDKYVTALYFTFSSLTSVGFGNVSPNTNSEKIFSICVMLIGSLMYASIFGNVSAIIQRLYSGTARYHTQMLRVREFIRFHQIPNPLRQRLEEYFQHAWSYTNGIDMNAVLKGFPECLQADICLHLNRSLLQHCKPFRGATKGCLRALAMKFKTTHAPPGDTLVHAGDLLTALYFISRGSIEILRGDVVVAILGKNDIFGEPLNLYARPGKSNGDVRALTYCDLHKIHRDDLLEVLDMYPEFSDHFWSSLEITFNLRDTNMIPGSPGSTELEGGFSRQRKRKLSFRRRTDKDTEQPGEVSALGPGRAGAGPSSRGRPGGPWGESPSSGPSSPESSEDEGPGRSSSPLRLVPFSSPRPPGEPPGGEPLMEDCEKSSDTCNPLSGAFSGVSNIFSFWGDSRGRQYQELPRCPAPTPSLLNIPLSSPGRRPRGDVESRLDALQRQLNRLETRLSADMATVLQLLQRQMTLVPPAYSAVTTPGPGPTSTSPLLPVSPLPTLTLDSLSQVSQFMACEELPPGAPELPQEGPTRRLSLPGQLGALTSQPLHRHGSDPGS

Row | SMILES | hERG current change (%, negative = inhibition) at 10uM
1 | O=C(c1ccco1)N1CCN=C1SCc1ccccc1Cl | -21.4%
2 | Cc1nc2ccn(Cc3ccccc3)c(=O)c2cc1C(=O)N1CCN(c2ccc(F)cc2)CC1 | -78.5%
3 | CN1CCCN(C(=O)c2cccc3ccccc23)CC1 | 7.9%
4 | O=C(O)CCC(=O)Nc1cccc(-c2csc(-c3ccccc3)n2)c1 | 4.06%
5 | Cc1cc(OC(C)C(=O)NCc2ccccn2)c2c(C)c(Cc3ccccc3)c(=O)oc2c1 (centres unmarked) | -0.744%
6 | CC1(C)CC(CCN(Cc2ccccc2)C(=O)c2ccco2)(c2ccccc2)CCO1 (centres unmarked) | 4.47%
7 | CCN(CC)C(=O)Cn1cc(C=C2C(=O)N(C)C(=O)N(C)C2=O)c2ccccc21 | 9.96%
8 | Cc1ccc(NC(=O)CCc2ccc(C)o2)c(C)c1 | 9.83%
9 | CCCn1nc2ccccc2c1P(=O)(N1CCOCC1)N1CCOCC1 | 3.81%
10 | Cc1ccc2nc(N=C(N)N)nc(C)c2c1 | 18.3%
11 | Fc1ccc(Nc2nc(Oc3ccccc3F)nc(N3CCCC3)n2)cc1 | 11.9%
12 | O=C(Nc1ccc(SC(F)F)cc1)c1ccccc1F | 12%
13 | O=C1CN(CC(=O)N2CCOCC2)c2ccccc2O1 | 10.7%
14 | Cl.OC(CNC1CCCC1)COc1ccccc1Br (centres unmarked) | 7.79%
15 | O=C(N/N=C/c1ccccc1Cl)c1nc2ccc([N+](=O)[O-])cc2c(=O)[nH]1 | -23.2%
16 | COc1ccc2c(c1)C(=O)CC(c1ccc3c(c1)OCCO3)O2 (centres unmarked) | 14.2%
17 | O=C(O)c1ccccc1C1=Nc2ccc(O)cc2Oc2cc(O)ccc21 | 13.8%
18 | COc1cccc(N2CCN(CC(=O)C34CC5CC(CC(C5)C3)C4)CC2)c1 | 13.8%
19 | C=CCN(CC=C)C(=O)C(=O)c1cc(C)n(-c2ccc([N+](=O)[O-])cc2)c1C | -63.4%
20 | CCCCN(C(=O)CSc1ncn[nH]1)c1c(N)n(Cc2ccccc2)c(=O)[nH]c1=O | 12.1%
21 | Cc1ccc(Br)cc1S(=O)(=O)Nc1cccnc1 | 22.1%
22 | O=C(NCCS(=O)(=O)N1CCCCCC1)c1ccccc1 | -5.12%

Row | SMILES | hERG current change (%, negative = inhibition) at 10uM
23 | CCCCN(C)C(=S)Nc1ccc(Oc2ccccc2)cc1 | -2.38%
24 | O=C(Nn1cnnc1)c1ccccc1CCc1ccccc1 | 3.69%
25 | CCNS(=O)(=O)c1ccc(CCC(=O)Nc2ccc(C(=O)OC)cc2)cc1 | 13.1%
26 | O=C(COc1ccccc1Br)NCCc1nc2ccccc2[nH]1 | -65.3%
27 | C#CCOCCOCCOCCNc1nc(N2CCN(C(=O)CCCCCCCCCCNC(=O)[C@@H](CCSC)n3cc(CCO)nn3)CC2)nc(N2CCN(C(=O)CCCCCCCCCCNC(=O)[C@H](CCC(=O)O)n3cc(CCCCCN)nn3)CC2)n1 | -7.71%
28 | Cc1cc(C)c(NC(=O)COC(=O)c2cc([N+](=O)[O-])ccc2N2CCOCC2)c(C)c1 | 17.2%
29 | O=C(NCC1CC1)c1ccc2c3n(nc2c1)-c1ccccc1CO3 | -17.1%
30 | COC(=O)C(c1ccccc1)N1CCCCCC1.Cl (centres unmarked) | 10.8%
31 | CS(=O)(=O)N(CCc1ccccc1)CC(=O)N1CCc2ccccc2C1 | -33.2%
32 | O=C(Nc1ccc(S(=O)(=O)Nc2nccs2)cc1)c1cc(-c2ccccn2)nc2ccccc12 | 4.36%
33 | CCN(CC(=O)Nc1ccccc1C(F)(F)F)C(=O)c1ccc2c(=O)n3c(nc2c1)CCC3 | -2.85%
34 | O=[N+]([O-])c1ccc(/C=N/n2cn[nH]c2=S)cc1 | 33%
35 | O=C(CN1CCN(Cc2ccccc2)C1=O)NCc1cccs1 | 1.2%
36 | COc1ccc(N(CC(O)CN2C(=O)NC(C)(C)C2=O)S(=O)(=O)c2ccc(C)cc2)cc1 (centres unmarked) | -11.6%
37 | CC1(C(=O)Oc2ccccc2)Cc2ccccc2C(=O)O1 (centres unmarked) | -8.04%
38 | CCCc1cc(=O)oc2cc(C)cc(OCC(=O)Nc3ccccn3)c12 | 13.2%
39 | CCOC(=O)C1CCN(C(=O)CN2C(=O)c3cccnc3Oc3ccccc32)CC1 | 6.87%
40 | Cc1ccc(-n2c(Cc3cccn3C)nnc2SCC(=O)NCc2ccc3c(c2)OCO3)cc1 | -36%
41 | O=C(c1ccc(CS(=O)Cc2ccc(Cl)cc2)o1)N1CCN(c2ccccc2F)CC1 (centres unmarked) | -55.8%
42 | O=C(NCCc1ccccc1)c1cnc(Cl)c(Cl)c1 | 11.9%
43 | CCO[C@H]1OC(C(=O)NCc2ccccc2)=C[C@@H](C)[C@@H]1CCCO | -9.84%
44 | Cc1cc(C(=O)N/N=C/c2cc(Br)cc(Br)c2OC(=O)c2ccccc2)n[nH]1 | 16.2%

Row | SMILES | hERG current change (%, negative = inhibition) at 10uM
45 | Cc1ccc(CC(=O)Nc2ccc(Cl)cn2)cc1 | 5.57%
46 | CCN(CC)c1ccc(NC(=O)/C=C\c2ccccc2Cl)cc1 | 0.239%
47 | CCc1nc(NCCCN2CCOCC2)c2oc3ccccc3c2n1 | -26.6%
48 | CN(C)CCNC(=O)Cn1nc(-c2ccc(Cl)cc2)ccc1=O | -18.2%
49 | O=C(COc1ccc(/C=N/NS(=O)(=O)c2ccccc2)cc1)NCCc1ccccc1 | 19.5%
50 | Clc1cccc(CN2CCc3c([nH]c4ccccc34)C2)c1Cl | -8.21%
51 | CC(=O)Nc1ccc(NC(=O)c2ccccc2Sc2ccc([N+](=O)[O-])cc2Cl)cc1 | -4.4%
52 | CCOc1ccc(CCNC(=O)CS(=O)(=O)Cc2nc(-c3cccc(OC)c3)oc2C)cc1 | 0.111%
53 | CN1CCc2c(sc(NC(=O)c3ccc(C(=O)c4ccccc4)cc3)c2C(N)=O)C1.Cl | 11.5%
54 | CN=C(Nc1cccc(OC)c1)SC1CC(=O)N(c2ccc(C(=O)O)cc2)C1=O (centres unmarked) | 4.58%
55 | CSc1ccc(/C=C(\NC(=O)c2ccccc2)C(=O)NN)cc1 | 9.02%
56 | O=C(Cn1ncc2ccccc21)N1CCC2(CC1)OCCO2 | 5.47%
57 | Cc1ccc(CCNC(=O)c2nnn(-c3cccc(C)c3)c2N)cc1 | 2.33%
58 | CC1(C)C2CC=C(/C=N/NC(=O)c3ccccc3Br)C1C2 (centres unmarked) | -2.58%
59 | O=C(NCc1ccccc1)C1=C[C@@H](c2ccc(C(F)(F)F)cc2)C[C@@H](OCCCCO)O1 | -25.8%
60 | COc1cccc(C(=O)COC(=O)c2cccs2)c1 | 10.6%
61 | COc1ccc(C(=O)c2ccccc2Cl)cc1OC | -10.6%
62 | CSCCC(NC(=O)c1ccccc1)C(=O)NCCCn1nc(C)cc1C (centres unmarked) | -2.56%
63 | Cc1ccc(S(=O)(=O)NCc2ccc(C(=O)N3CCN(c4ccccc4)CC3)cc2)cc1 | -18.6%
64 | Cc1noc(COc2ccccc2OCc2onc(C)c2Cl)c1Cl | 7.29%
65 | Cc1ccccc1NC(=O)CCN1CCN(Cc2ccccc2)CC1 | -27.2%
66 | Cc1ccc(C)c(N2CCN(S(=O)(=O)c3c(C(=O)N4CCCCC4)c(C)n(C)c3C)CC2)c1 | -5.82%

Row | SMILES | hERG current change (%, negative = inhibition) at 10uM
67 | CCOC(=O)NNc1ccccc1 | 6.88%
68 | O=C(NCCc1ccccc1)c1ccc(Cl)cc1[N+](=O)[O-] | -0.169%
69 | CCOC(=O)c1sc2nc3c(cc2c1N)COC(C)(CC)C3 (centres unmarked) | -3.67%
70 | CCCN(C(=O)CSCC(=O)Nc1ccc(OC)cc1)c1c(N)n(Cc2ccccc2)c(=O)[nH]c1=O | -8.78%
71 | Cc1cc(=O)n(CC(=O)O)c2ccccc12 | 6.64%
72 | O=C(Nc1nccs1)c1nc[nH]c1C(=O)N1CCc2ccccc2C1 | -12.8%
73 | O=C(O)c1cccc(Nc2ncnc3sccc23)c1 | 24.2%
74 | CC(C)Oc1ccc(C(=O)N(Cc2ccco2)C2CCS(=O)(=O)C2)cc1 (centres unmarked) | -6.56%
75 | CC(C)Oc1cccc(C(=O)C2CCCN(C(=O)c3ccsc3)C2)c1 (centres unmarked) | -26.8%
76 | COCCN(C(=O)COC(=O)c1ccccc1Nc1ccccc1)c1c(N)n(Cc2ccccc2)c(=O)[nH]c1=O | -44.9%
77 | O=C(CCN1CCN(c2ccccc2)CC1)N/N=C/c1ccccc1O | -16%
78 | Cc1ccc(-c2nc3ccc([N+](=O)[O-])cc3[nH]2)cc1 | -3.49%
79 | C=C(Br)Cn1c(CC(C)C)nc2ccccc21 | -2.46%
80 | CCOC(=O)N1CCN(C(=O)C2CC(c3cc(OC)ccc3OC)=NO2)CC1 (centres unmarked) | -1.52%
81 | COC(=O)C1=CN(Cc2ccc(F)cc2)C=C(C(=O)OC)C1c1cc(OC)c(OC)c(OC)c1 | -30.6%
82 | CCOc1ccc(-n2c(N)c(-c3nc4ccccc4[nH]3)sc2=S)cc1 | 11.2%
83 | CCOc1ccc(NC(=O)c2cn(-c3ccc(OCC)cc3)c(=O)c3cc(OC)c(OC)cc23)cc1 | 2.57%
84 | Cc1cccc(C)c1NC(=S)N(CCN(C)C)C(C)c1cccnc1 (centres unmarked) | -9.34%
85 | COc1ccc(C(NC(N)=O)c2ccccc2)cc1 (centres unmarked) | 10.3%
86 | Cc1oc(-c2ccccc2Cl)nc1CS(=O)CC(=O)NCc1ccco1 (centres unmarked) | -11.1%
